Test results taken from the supplement of paper PMC8728848.
The list shows a part of the results.

Assays:
Test in all cases: glycan array binding signal (z-score within array); higher = stronger binding
Conditions in all cases: glycan notation: IUPAC condensed, linker removed
[1] = molecular target: Gal(b1-4)GlcNAc(b1-3)Gal(b1-4)GlcNAc(b1-2)[Gal(b1-4)GlcNAc(b1-3)Gal(b1-4)GlcNAc(b1-6)]Man(a1-6)[Gal(b1-4)GlcNAc(b1-3)Gal(b1-4)GlcNAc(b1-2)Man(a1-3)]Man(b1-4)GlcNAc(b1-4)GlcNAc
Outline: (§1)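 From the Consortium for Functional Glycomics database, 3228 arrays were curated, keeping only those whose protein sequence was available. Binding is given as a within-array Z-score averaged across arrays sharing a protein sequence and across linkers. Negative Z-scores can be read as non-binding.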

[2] = molecular target: Gal(b1-4)GlcNAc(b1-3)Gal(b1-4)GlcNAc(b1-2)[Gal(b1-4)GlcNAc(b1-3)Gal(b1-4)GlcNAc(b1-6)]Man(a1-6)[Gal(b1-4)GlcNAc(b1-3)Gal(b1-4)GlcNAc(b1-2)Man(a1-3)]Man(b1-4)GlcNAc(b1-4)[Fuc(a1-6)]GlcNAc
Outline: as §1

[3] = molecular target: Gal(b1-4)GlcNAc(b1-3)Gal(b1-4)GlcNAc(b1-3)Gal(b1-4)GlcNAc
Outline: as §1

[4] = molecular target: Gal(b1-4)GlcNAc(b1-3)Gal(b1-4)GlcNAc(b1-3)Gal(b1-4)GlcNAc(b1-2)Man(a1-3)[Gal(b1-4)GlcNAc(b1-3)Gal(b1-4)GlcNAc(b1-3)Gal(b1-4)GlcNAc(b1-2)Man(a1-6)]Man(b1-4)GlcNAc(b1-4)GlcNAc
Outline: as §1

[5] = molecular target: Gal(b1-4)GlcNAc(b1-3)Gal(b1-4)GlcNAc(b1-3)Gal(b1-4)GlcNAc(b1-2)Man(a1-3)[Gal(b1-4)GlcNAc(b1-3)Gal(b1-4)GlcNAc(b1-3)Gal(b1-4)GlcNAc(b1-2)Man(a1-6)]Man(b1-4)GlcNAc(b1-4)[Fuc(a1-6)]GlcNAc
Outline: as §1

[6] = molecular target: Gal(b1-4)GlcNAc(b1-3)Gal(b1-4)GlcNAc(b1-3)Gal(b1-4)GlcNAc(b1-2)[Gal(b1-4)GlcNAc(b1-3)Gal(b1-4)GlcNAc(b1-3)Gal(b1-4)GlcNAc(b1-6)]Man(a1-6)[Gal(b1-4)GlcNAc(b1-3)Gal(b1-4)GlcNAc(b1-3)Gal(b1-4)GlcNAc(b1-2)Man(a1-3)]Man(b1-4)GlcNAc(b1-4)[Fuc(a1-6)]GlcNAc
Outline: as §1

[7] = molecular target: Gal(b1-4)GlcNAc(b1-3)Gal(b1-4)GlcNAc(b1-3)Gal(b1-4)GlcNAc(b1-3)Gal(b1-4)GlcNAc(b1-2)Man(a1-3)[Gal(b1-4)GlcNAc(b1-3)Gal(b1-4)GlcNAc(b1-3)Gal(b1-4)GlcNAc(b1-3)Gal(b1-4)GlcNAc(b1-2)Man(a1-6)]Man(b1-4)GlcNAc(b1-4)GlcNAc
Outline: as §1

[8] = molecular target: Gal(b1-4)GlcNAc(b1-3)Gal(b1-4)GlcNAc(b1-3)Gal(b1-4)GlcNAc(b1-3)Gal(b1-4)GlcNAc(b1-2)Man(a1-3)[Gal(b1-4)GlcNAc(b1-3)Gal(b1-4)GlcNAc(b1-3)Gal(b1-4)GlcNAc(b1-3)Gal(b1-4)GlcNAc(b1-2)Man(a1-6)]Man(b1-4)GlcNAc(b1-4)[Fuc(a1-6)]GlcNAc
Outline: as §1

[9] = molecular target: Gal(b1-4)GlcNAc(b1-3)Gal(b1-4)GlcNAc(b1-3)Gal(b1-4)GlcNAc(b1-3)Gal(b1-4)GlcNAc(b1-2)[Gal(b1-4)GlcNAc(b1-3)Gal(b1-4)GlcNAc(b1-3)Gal(b1-4)GlcNAc(b1-3)Gal(b1-4)GlcNAc(b1-6)]Man(a1-6)[Gal(b1-4)GlcNAc(b1-3)Gal(b1-4)GlcNAc(b1-3)Gal(b1-4)GlcNAc(b1-3)Gal(b1-4)GlcNAc(b1-2)Man(a1-3)]Man(b1-4)GlcNAc(b1-4)[Fuc(a1-6)]GlcNAc
Outline: as §1

[10] = molecular target: Gal(b1-4)GlcNAc(b1-3)Gal(b1-4)GlcNAc(b1-3)Gal(b1-4)GlcNAc(b1-3)Gal(b1-4)GlcNAc(b1-3)Gal(b1-4)GlcNAc(b1-2)Man(a1-3)[Gal(b1-4)GlcNAc(b1-3)Gal(b1-4)GlcNAc(b1-3)Gal(b1-4)GlcNAc(b1-3)Gal(b1-4)GlcNAc(b1-3)Gal(b1-4)GlcNAc(b1-2)Man(a1-6)]Man(b1-4)GlcNAc(b1-4)GlcNAc
Outline: as §1

[11] = molecular target: Gal(b1-4)GlcNAc(b1-3)Gal(b1-4)GlcNAc(b1-3)Gal(b1-4)GlcNAc(b1-3)Gal(b1-4)GlcNAc(b1-3)Gal(b1-4)GlcNAc(b1-2)Man(a1-3)[Gal(b1-4)GlcNAc(b1-3)Gal(b1-4)GlcNAc(b1-3)Gal(b1-4)GlcNAc(b1-3)Gal(b1-4)GlcNAc(b1-3)Gal(b1-4)GlcNAc(b1-2)Man(a1-6)]Man(b1-4)GlcNAc(b1-4)[Fuc(a1-6)]GlcNAc
Outline: as §1

[12] = molecular target: Gal(b1-4)GlcNAc(b1-3)Gal(b1-4)GlcNAc(b1-3)Gal(b1-4)GlcNAc(b1-3)Gal(b1-4)GlcNAc(b1-3)Gal(b1-4)GlcNAc(b1-2)[Gal(b1-4)GlcNAc(b1-3)Gal(b1-4)GlcNAc(b1-3)Gal(b1-4)GlcNAc(b1-3)Gal(b1-4)GlcNAc(b1-3)Gal(b1-4)GlcNAc(b1-6)]Man(a1-6)[Gal(b1-4)GlcNAc(b1-3)Gal(b1-4)GlcNAc(b1-3)Gal(b1-4)GlcNAc(b1-3)Gal(b1-4)GlcNAc(b1-3)Gal(b1-4)GlcNAc(b1-2)Man(a1-3)]Man(b1-4)GlcNAc(b1-4)[Fuc(a1-6)]GlcNAc
Outline: as §1

[13] = molecular target: Gal(b1-4)GlcNAc(b1-3)Gal(b1-4)GlcNAc(b1-3)Gal(b1-4)GlcNAc(b1-3)Gal(b1-4)GlcNAc(b1-3)Gal(b1-4)GlcNAc(b1-3)Gal(b1-4)GlcNAc(b1-2)Man(a1-3)[Gal(b1-4)GlcNAc(b1-3)Gal(b1-4)GlcNAc(b1-3)Gal(b1-4)GlcNAc(b1-3)Gal(b1-4)GlcNAc(b1-3)Gal(b1-4)GlcNAc(b1-3)Gal(b1-4)GlcNAc(b1-2)Man(a1-6)]Man(b1-4)GlcNAc(b1-4)GlcNAc
Outline: as §1

[14] = molecular target: Gal(b1-4)GlcNAc(b1-3)Gal(b1-4)GlcNAc(b1-3)GalNAc
Outline: as §1

[15] = molecular target: Gal(b1-4)GlcNAc(b1-3)Gal(b1-4)GlcNAc(b1-3)[Gal(b1-4)GlcNAc(b1-3)Gal(b1-4)GlcNAc(b1-6)]GalNAc
Outline: as §1

[16] = molecular target: Gal(b1-4)GlcNAc(b1-3)Gal(b1-4)GlcNAc(b1-6)[Gal(b1-3)]GalNAc
Outline: as §1

[17] = molecular target: Gal(b1-4)GlcNAc(b1-3)Gal(b1-4)[Fuc(a1-3)]GlcNAc(b1-3)Gal(b1-4)[Fuc(a1-3)]GlcNAc
Outline: as §1

[18] = molecular target: Gal(b1-4)GlcNAc(b1-3)GalNAc
Outline: as §1

[19] = molecular target: Gal(b1-4)GlcNAc(b1-3)[Fuc(a1-3)GlcNAc(b1-6)]Gal(b1-4)Glc
Outline: as §1

[20] = molecular target: Gal(b1-4)GlcNAc(b1-3)[Gal(b1-4)GlcNAc(b1-6)]Gal(b1-4)GlcNAc
Outline: as §1

[21] = molecular target: Gal(b1-4)GlcNAc(b1-3)[GlcNAc(b1-6)]Gal(b1-4)GlcNAc
Outline: as §1

[22] = molecular target: Gal(b1-4)GlcNAc(b1-6)Gal(b1-4)GlcNAc
Outline: as §1

B1: Pwp2 (Candida glabrata) (protein)
chain: MGSSHHHHHHSSGLVPRGSHMASKNPVELNNVCTFPNDYGRIPGFTVLVGRLGLLISASDYKELLRYPGAFLIATQDTMTTSPNFELTGFPFFTGLYGLTVFPLDLLVELRGYFVPPNSGQYTFTLSDSDDAAIIFLGNPSAFPCGDLQNWPKPSEEDITVTDHLFPSRTLYLIEGVAYPMRIAYYNGIGAGRLNAAFIDPSGTRHTNWEGYIWQYDPCSTCTYS
B1 was tested, and the “glycan array binding signal (z-score)” value [1] was 0.214, the “glycan array binding signal (z-score)” value [2] was 0.398 and the “glycan array binding signal (z-score)” value [3] was -0.625. For the same binder, the “glycan array binding signal (z-score)” value [4] was -0.035, the “glycan array binding signal (z-score)” value [5] was 0.935 and the “glycan array binding signal (z-score)” value [6] was -0.243. The “glycan array binding signal (z-score)” value [7] was 0.211, the “glycan array binding signal (z-score)” value [8] was 3.91 and the “glycan array binding signal (z-score)” value [9] was -0.339. The “glycan array binding signal (z-score)” value [10] was 0.073, the “glycan array binding signal (z-score)” value [11] was 1.62 and the “glycan array binding signal (z-score)” value [12] was -0.585. For the same binder, the “glycan array binding signal (z-score)” value [13] was 2.5, the “glycan array binding signal (z-score)” value [14] was 0.189 and the “glycan array binding signal (z-score)” value [15] was 0.599. The “glycan array binding signal (z-score)” value [16] was -0.628, the “glycan array binding signal (z-score)” value [17] was -0.588 and the “glycan array binding signal (z-score)” value [18] was -0.473. For the same binder, the “glycan array binding signal (z-score)” value [19] was -0.42, the “glycan array binding signal (z-score)” value [20] was -0.492 and the “glycan array binding signal (z-score)” value [21] was -0.106. For the same binder, the “glycan array binding signal (z-score)” value [22] was -0.453.
